Assay results: PubChem BioAssay AID720533 (National Center for Advancing Translational Sciences (NCATS), 2013)
In all, about 18,000 compounds went through this assay and about 750 (4.2%) were called active. Another 13% or so got no clear call; they are omitted. The call rests on the fitted dose curve; tested in HEK293 cells. A number of entries come with more than one value. This list holds those alone. An entry can have further records. The records of an entry repeat one measurement across runs, samples, wells, individuals or studies. Signs of the kind (2×) say how often a value occurs here.
Potency means the concentration at half of the fitted maximal effect.

Assay: qHTS for Inhibitors of binding or entry into cells for Lassa Virus
Details: Lassa virus pseudotyped entry inhibition, cell-based qHTS
With `COc1c(C)c2c(c(O)c1C/C=C(\C)CCC(=O)O)C(=O)OC2` the Potency was “active: 1 µM (2×), 1.41 µM (2×), 398 nM, 891 nM [separate samples]”.
